Laboratory results as given in PubChem BioAssay AID1645882 (National Center for Advancing Translational Sciences (NCATS), 2021).
The whole screen tested about 16,000 compounds, of which about 120 (0.75%) were called active. Roughly 4% stayed inconclusive and do not appear here. Calls follow the shape of the dose curve; as a rule, active = well fitted inhibition curve with a large enough effect; inconclusive = small, poorly fitted or top-dose-only effect; inactive = no such curve, though single readings can be large or run the other way. This is one part of the list. *1 amine or outer side, *2 acyl side, *3 side chain or, on linkers, in order; H or OH if unused. Where a SMILES comes first, the peptide text is derived from it. Bridges are numbered along the chain shown (N, C = ends). [ ]: non-standard residue; d: D form. The star is where a group is joined. X5 = NC1=N[C@@H]([C@H](N[*:1])C(=O)[*:2])C[C@H](O)N1; ΔAla(Z-3-ureido) = NC(=O)N/C=C(\N)C(=O)O; β3hOrn = NCCC[C@H](N)CC(=O)*; Dap = NC[C@H](N)C(=O)O

What follows are compounds tested against Rap guanine nucleotide exchange factor 3 (Homo sapiens) (UniProt O95398) (assay: Validation qHTS for antagonist of cAMP-regulated guanine nucleotide exchange factor 3 (EPAC1)). Conditions: EPAC1 Rap1B-BODIPY-GDP exchange, fluorescence; series mostly up to 150 µM; activity change, negative = inhibition: at the top concentration.
Outline: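 EPAC1 (100 nM) mixed with 250 nM RAP1B-BODIPY-GDP and 50 uM GDP; compounds in concentration series, 5 min at room temperature. Fluorescence (ex 480/em 540 nm) read every 5 min for 30 min; normalized to ATA control and DMSO.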
Also: nearly all actives have a fitted effect of over 75% in size.

Chain of UniProt O95398 (O95398 whole entry, looked up): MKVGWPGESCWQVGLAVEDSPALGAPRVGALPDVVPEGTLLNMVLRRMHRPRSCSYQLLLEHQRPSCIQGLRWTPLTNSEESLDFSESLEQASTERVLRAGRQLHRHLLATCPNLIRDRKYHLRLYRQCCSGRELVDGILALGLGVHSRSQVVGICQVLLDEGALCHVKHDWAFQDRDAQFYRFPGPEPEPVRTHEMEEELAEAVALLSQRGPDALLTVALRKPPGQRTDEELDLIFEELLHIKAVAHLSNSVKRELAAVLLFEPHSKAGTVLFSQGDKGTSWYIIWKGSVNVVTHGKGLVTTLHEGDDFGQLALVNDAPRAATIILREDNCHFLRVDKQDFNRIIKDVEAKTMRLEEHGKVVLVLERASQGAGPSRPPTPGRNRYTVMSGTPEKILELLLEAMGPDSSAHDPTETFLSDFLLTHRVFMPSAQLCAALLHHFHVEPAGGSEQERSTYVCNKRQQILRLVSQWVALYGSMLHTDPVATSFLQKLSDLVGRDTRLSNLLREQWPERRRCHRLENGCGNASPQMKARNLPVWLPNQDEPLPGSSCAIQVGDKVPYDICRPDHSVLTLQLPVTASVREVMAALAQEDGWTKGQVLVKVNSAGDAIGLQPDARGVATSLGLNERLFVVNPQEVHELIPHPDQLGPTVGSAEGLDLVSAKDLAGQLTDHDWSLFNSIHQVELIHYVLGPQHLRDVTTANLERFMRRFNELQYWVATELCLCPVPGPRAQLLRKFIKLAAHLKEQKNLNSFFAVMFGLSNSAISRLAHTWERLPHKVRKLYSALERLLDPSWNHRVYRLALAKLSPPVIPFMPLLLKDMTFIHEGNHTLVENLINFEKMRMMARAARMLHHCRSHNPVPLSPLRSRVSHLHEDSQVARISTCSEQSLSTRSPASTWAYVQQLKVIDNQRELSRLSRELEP

Activity change, negative = inhibition, inactive:
CC(O)CCCCn1c(=O)c2c(ncn2C)n(C)c1=O (stereo not given) 14.9%
CC(=O)Oc1cc2c(s1)CCN(C(C(=O)C1CC1)c1ccccc1F)C2 (stereo not given) 20.6%
OC[C@H]1O[C@@H](n2cnc3c(NC4CCCC4)nc(Cl)nc32)[C@H](O)[C@@H]1O 41.9%
COc1ccc(NC(=O)N2CCCC3(CCN(C(=O)c4ccncc4)CC3)C2)cc1 30.5%
CCCCC(=O)N(Cc1ccc(-c2ccccc2-c2nn[nH]n2)cc1)[C@@H](C(=O)O)C(C)C 23.8%
CC(C)C(=O)Nc1ccc([N+](=O)[O-])c(C(F)(F)F)c1
Cc1c(C(=O)N2CCCC2)sc2ncnc(NCCCN3CCOCC3)c12 1.23%
C[C@H]1O[C@@H](O[C@H]2CC[C@@]3(C)[C@H](CC[C@@H]4[C@@H]3C[C@@H](O)[C@]3(C)[C@@H](C5=CC(=O)OC5)CC[C@]43O)C2)C[C@H](O)[C@@H]1O[C@H]1C[C@H](O)[C@H](O[C@H]2C[C@H](O)[C@H](O[C@@H]3O[C@H](CO)[C@@H](O)[C@H](O)[C@H]3O)[C@@H](C)O2)[C@@H](C)O1 18.6%
COc1ccccc1-c1nc(N(C)C)c2ccccc2n1 13.7%
COCC(=O)Nc1cc(C(=O)NC2CCCc3ccccc32)c2c(c1)nc(-c1ccncc1)n2C (stereo not given) 3.61%
CC1=CC(=O)C2=C(C)C[C@@H]3OC(=O)[C@@H](C)[C@H]3C=C12 21.2%
O=S(=O)(N(Cc1ccccc1)[C@@H](CO)Cc1ccccc1)N(Cc1ccccc1)[C@@H](CO)Cc1ccccc1 -1.23%
O=C(CO)[C@@H](O)[C@H](O)[C@@H](O)C(=O)O 10.8%
OCCN1C[C@H](O)[C@@H](O)[C@H](O)[C@H]1CO -11.3%
CCC(=O)NC1CCc2cccc(OC)c2C1 (stereo not given) 14.5%
Cc1ccsc1CN1CCc2nnc(CCNC(=O)c3ccc(F)cc3)n2CC1 13.5%
COc1cc(-c2c(OC)cccc2OC)cc2c1OCCN(C(=O)CCC(=O)c1ccc(F)cc1)C2 13.3%
Cc1ccc(C(=O)NCCc2nnc3n2CCN(Cc2cc(C)cc(C)c2)CC3)cc1 -5.23%
O=[N+]([O-])c1ccc(/C=N\O)o1 15.3%
CC(=O)Oc1ccc2c(c1)CCC1C2CC[C@]2(C)C(OC(C)=O)CCC12 (stereo not given in full) -28.3%
COc1cccc(Cn2c(=O)c(-c3cccc(C#N)c3)nc3cnc(N4CCOCC4)nc32)c1 9.65%
CC(=O)OCC[N+](C)(C)C
COc1cc2c(c(OC)c1OC)-c1c(cc3c(c1OC)OCO3)C[C@@H](C)[C@](C)(O)C2
N[C@@H](Cc1cc(-c2ccc(Cl)cc2Cl)cc(CP(=O)(O)O)c1O)C(=O)O -9.72%
CC1(C)CCC2=C(O1)c1ccccc1C(=O)C2=O 0.439% [at 75.8 µM]
CNc1nc(-c2ccc3c(c2)OCO3)nc2ccccc12 -7.55%
CC(=O)NCCNc1ncnc2ccc(-c3cccc(NS(C)(=O)=O)c3)cc12 5.68%
Cn1cccc1C(=O)N1CCC2(CC1)CN(C(=O)Nc1cccc(C#N)c1)C2 -13.3%
COc1cc(CN2CCC3(CCC(CNC(=O)c4ccccc4)O3)CC2)cc(OC)c1 (stereo not given) 13.7%
CCOc1ccc(NC(=S)Nc2ccc(OCC)cc2)cc1 -2.81%
CC(=O)OC1CC(OC(C)=O)[C@]2(C)C(CC(O)[C@]3(C)C2CC[C@@]2(C)C(c4ccoc4)OC(=O)C4O[C@]432)C1(C)C (stereo not given in full) -25.5%
CC(C)=CCOc1cc2oc(=O)ccc2cc1O -0.175%
Cc1cc(O)c(C)c2c1CC[C@H]1[C@H](C)C(=O)O[C@H]21 17.4%
CC1(C)C(=O)CC[C@@]2(C)C1CC(O)[C@@]1(C)C3=CC(=O)OC(c4ccoc4)[C@]3(C)CCC21 (stereo not given in full) 10.1%
O=C(O)CSCC(=O)NC1CCSC1=O (stereo not given) 37%
O=C(Nc1ccccc1)N1CCC2(CC1)CCN(S(=O)(=O)c1ccccc1)CC2 2.58%
O=C1C(SCCO)=C(SCCO)C(=O)c2ccccc21
COc1ccc(Oc2ncc3nc(-c4ccc(F)cc4)c(=O)n(Cc4cccs4)c3n2)cc1 -0.023%
CCCCCCCC/C=C\CCCCCCCC(=O)OCC(CO)OC(=O)CCCCCCC/C=C\CCCCCCCC (stereo not given) 2.68% [at 15.3 µM]
CNC(=O)Oc1ccc2c(c1)[C@]1(C)CCN(C)[C@@H]1N2C
COc1cc(/C=C/C(=O)CC(=O)/C=C/c2ccc(O)c(OC)c2)ccc1O
Cc1cccc(CNc2cc(-c3cccc(C#N)c3)ncn2)c1 0.998%
COc1ccccc1-c1ccnc(-n2ncc(C(=O)NCc3cccc(C)n3)c2C)n1 25.8%
CO/N=C(\C(=O)N[C@@H]1C(=O)N2C(C(=O)O)=C(CSc3cnns3)CS[C@H]12)c1csc(N)n1 1.19%
CC(C)CN(C[C@@H](O)[C@H](Cc1ccccc1)NC(=O)O[C@H]1CO[C@H]2OCC[C@H]21)S(=O)(=O)c1ccc(N)cc1 7.47%
COc1cccc(-c2nc3cc4c(cc3cc2CN(C(=O)c2cc(C)nn2C)C2CC2)CCC4)c1OC 0.505%
CN(C)C(=O)c1ccc(-c2ccc3ncnc(N(C)C)c3c2)cc1 6.79%
CCCCCc1ccc(-c2cn(Cc3ccc([N+](=O)[O-])cc3)nn2)cc1 -11.4%
COCCn1c(=O)c(CCc2ccccc2)nc2cnc(N3CCN(C)CC3)nc21 8.29%
O=C1CCN(CCc2ccccc2)CCN1CCO -23.2%
CC1CC2(C)Oc3ccccc3C3OCC1(COC(=O)Nc1ccccc1)C(C)C32 (stereo not given) -5.79%
CO[C@H]1C[C@@H]2CC[C@@H](C)[C@@](O)(O2)C(=O)C(=O)N2CCCC[C@H]2C(=O)O[C@H]([C@H](C)C[C@@H]2CC[C@@H](O)[C@H](OC)C2)CC(=O)[C@H](C)C=C(C)[C@@H](O)[C@@H](OC)C(=O)[C@H](C)C[C@H](C)/C=C/C=CC=C1C -27%
CN(Cc1ccco1)c1ncncc1-c1ccccc1C(F)(F)F 4.28%
O=C1C[C@@H]2c3c(cccc3CN1Cc1ccc(Br)cc1)C[C@@H](O)[C@H]2O 15.3%
Cn1cc(-c2nc3cncnc3n(Cc3ccc(F)cc3)c2=O)c2ccccc21 5.48%
NCC[C@H](O)C(=O)N[C@@H]1C[C@H](N)[C@@H](O[C@H]2O[C@H](CN)[C@@H](O)[C@H](O)[C@H]2O)[C@H](O)[C@H]1O[C@H]1O[C@H](CO)[C@@H](O)[C@H](N)[C@H]1O -12%
N#Cc1cccc(-c2ccc3ncnc(NCCN4CCOCC4)c3c2)c1 5.59%
CN(C)c1ccc(/C=C/c2ccnc3c(-c4ccccc4)cccc23)cc1 17.8%
CSc1ccccc1C(=O)NCc1nc(-c2cccc(NC(=O)c3ccoc3C)c2)oc1C -6.38%
CC(C)C1CCC(C(=O)N[C@H](Cc2ccccc2)C(=O)O)CC1 (stereo not given in full) -6.33%
CCCCN1C[C@H](Cc2ccccc2)[C@@H](CC(=O)NCc2ccc(OC)cc2)C1=O 7.35%
COc1cccc(Cn2c(=O)c(CCc3ccccc3)nc3cnc(N4CCN(C)CC4)nc32)c1 6.89%
COc1ccc(CNc2ncncc2-c2ccccc2C(F)(F)F)c(OC)c1 -21%
COc1ccc(-n2c(CCNC(=O)c3ccc(-c4cccc(F)c4)cc3)nnc2SC)cc1 -24%
NC(=O)COCCN1CCN(C(c2ccccc2)c2ccc(Cl)cc2)CC1 (stereo not given) 33.1%
C[C@H]1C(O)[C@@]23CCC4C5(C=[N+](CCO)C[C@]4(C)CCC5)C2C[C@@H]1C3 (stereo not given in full) 15.8%
COC(=O)N1CCC2(CC1)CCN(c1ccccc1)CC2 15.6%
CCCCCCN(CCCCCC)C(=O)Cc1c(-c2ccc(Cl)cc2)[nH]c2ccc(Cl)cc12
CC1(C)S[C@@H]2[C@H](NC(=O)[C@H](N)c3ccccc3)C(=O)N2[C@H]1C(=O)OCOC(=O)[C@@H]1N2C(=O)C[C@H]2S(=O)(=O)C1(C)C 14.8%
O=C1c2cccc3c2[C@H](CCC3)CN1[C@@H]1CN2CCC1CC2 -3.77%
COc1cccc(Nc2ncc3nc(-c4ccc(Cl)cc4)c(=O)n(CCC#N)c3n2)c1 37.4%
O=C(c1cc(C(F)(F)F)cc(C(F)(F)F)c1)N1CCC[C@@]2(CCN(c3ccncc3)C2)C1 14.7%
COc1ccc(C(C)C(=O)c2ccc(O)cc2O)cc1 (stereo not given) -24.8%
NC1(C(=O)O)CCc2cc(C(=O)O)ccc21 (stereo not given)
CCCCCCCCCCC(CO)CCCCCCCC (stereo not given) 19.5%
NC(CO)C(=O)NNCc1ccc(O)c(O)c1O (stereo not given)
C=C1CCC2C(CC2(C)C)C(=O)CCC1O (stereo not given) 12.6%
Nc1nc2c(c(=O)[nH]1)N(C=O)C(CNc1ccc(C(=O)N[C@@H](CCC(=O)O)C(=O)O)cc1)CN2 (stereo not given in full) 18.2% [at 75.8 µM]
COc1ccccc1CCNc1ncnc2sc(C(=O)N3CCCN(C=O)CC3)c(C)c12 -6.89%
COCC(=O)Nc1cc(Sc2ccccc2)ccc1N=C(NC(=O)OC)NC(=O)OC -2.96%
COc1cccc(Cn2c(=O)cnc3cnc(N(C)C)nc32)c1 8.36%
C[C@]12CCC3c4ccc(O)cc4CCC3C1CCC2OC(=O)CCC1CCCC1 (stereo not given in full) 0.0163%
Cc1nc2cnc(N3CCOCC3)nc2n(C[C@H]2CCCO2)c1=O 13.4%
COc1ccc2c(c1OC)C(=O)N1c3ccccc3C(=O)OC21 (stereo not given) 1.5%
Cc1cccc(C(=O)NCN2CCN(c3ccccc3C#N)CC2)c1
NCCC[C@H](N)CC(=O)N[C@H]1CNC(=O)[C@H]([C@H]2C[C@H](O)NC(N)=N2)NC(=O)/C(=C/NC(N)=O)NC(=O)[C@H](CO)NC(=O)[C@H](CO)NC1=O (β3hOrn-[Dap]SS[ΔAla(Z-3-ureido)][X5]; lactam 1-C) 15.5%
CS(=O)(=O)Nc1cccc(-c2cncnc2-n2ccnc2)c1 8.36%
C/C=C1/C(=O)C[C@@H]2[C@H]3CCC4=CC(=O)CC[C@]4(C)[C@@H]3CC[C@]12C 18.8%
CC12CCC3C(=CCc4cc(O)ccc43)C1CCC2=O (stereo not given) -11.9%
O=C(NC1CCCCC1)NC1CCCCC1 -4.52%
